Measured values published in PubChem BioAssay AID686979 (National Center for Advancing Translational Sciences (NCATS), 2013).
Where “and” joins values, the source holds several entries; their conditions need not be identical. Equal values may be shown once. Among all 420,000 compounds or so, about 50,000 (12%) were called active. The shares of active, inactive and inconclusive entries below differ from those in the screen. The call rests on the fitted dose curve; in most records, active means well fitted inhibition curve with a large enough effect; inconclusive means small, poorly fitted or top-dose-only effect; inactive means flat fitted curve, though single readings scatter. Where the call is inconclusive, the potency comes from a doubtful curve fit.

test: qHTS for Inhibitors of human tyrosyl-DNA phosphodiesterase 1 (TDP1): qHTS in cells in presence of CPT; conditions: chicken DT40 Tdp1-/-;hTDP1 cells + 20 nM CPT, ATP luminescence, 48 h; activity change, negative = growth inhibition: at 46.2 µM (top of the series) unless noted; further: nearly all actives have a fitted effect of over 55% in size
Outline: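 Cell growth measured by CellTiter-Glo luminescence after a minimum 48 h, 37 C compound exposure with 20 nM CPT in Tdp1-knockout DT40 cells stably expressing hTDP1, seeded 400/well; qHTS titration format.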
On the % scale 0 is the no-effect control and ±100 the full control effect; potency means the concentration at half of the fitted maximal effect; tags describe the fitted curve by direction and shape.

| Structure (SMILES) | Potency | activity change, negative = growth inhibition |
| --- | --- | --- |
| O=C(CCC(=O)N1CCN(c2cccc(Cl)c2)CC1)c1cccs1 | inconclusive: 25.9 µM [inhibitor, single point] |  |
| O=C(N/N=C\c1cccc(Br)c1)c1ccccc1-n1cccc1 | inconclusive: 23.1 µM [inhibitor, single point] |  |
| CCN(CC)c1ccc(NC(=O)c2ccc(Br)o2)c(C)c1 | inconclusive: 29.1 µM [inhibitor, single point] |  |
| CCc1cccc2c(C(=O)COC(=O)c3nn(C)c(=O)c4ccccc34)c[nH]c12 | inconclusive: 16.4 µM [inhibitor, partial curve, poor fit] |  |
| C=CCC(C(=O)Oc1c(C(C)(C)C)cc(C)cc1C(C)(C)C)c1ccccc1 (configuration not stated) |  | inactive: -27.5% |
| Cc1ccc2nc(-c3ccccc3)c(Cc3ccccc3C(F)(F)F)n2c1 | active: 16.4 µM |  |
| CC1=C(C(=O)OCC(C)C)C(c2cc3c(cc2Br)OCO3)NC(=O)N1C (configuration not stated) | active: 18.4 µM |  |
| Cc1ccc(CN(Cc2ccco2)C(=O)COc2ccc(C(C)C)cc2)cc1 | inconclusive: 29.1 µM [inhibitor, single point] |  |
| Cc1nn(-c2ccccc2)c(N2CCCC2)c1/C=C1\N=C(c2ccc(F)cc2)OC1=O |  | inactive: -12.3% |
| COc1cc(-c2noc(-c3ccco3)n2)cc(OC)c1OC | inconclusive: 18.4 µM [inhibitor, single point] |  |
| CCCC(C)NC(=O)Cn1c(=O)c2c(ncn2CCC(C)C)n(Cc2ccccc2)c1=O (configuration not stated) |  | inconclusive: -27.4% [inhibitor] |
| N#Cc1ccsc1NC(=O)CN1CCN(c2ccccc2)CC1 |  | inactive: 9.77% |
| CN1CCCN(c2cc(-c3ccc4ccccc4c3)nc3ccnn23)CC1 | active: 20.6 µM |  |
| CCn1c(COc2cccc(C)c2)nnc1SCC(=O)N1CCCC1 |  | inactive: -19.1% |
| O=C1CCCN1CC(CN1CCOCC1)Sc1nc2ccccc2c(=O)n1-c1ccccc1 (configuration not stated) |  | inactive: -12.2% |
| O=S(=O)(NCC(c1cccnc1)N1CCN(c2ccc(F)cc2)CC1)c1cccs1 (configuration not stated) | inconclusive: 16.4 µM [inhibitor, single point] |  |
| Cc1cccc(N(C)S(=O)(=O)c2ccc3[nH]c(=O)c(=O)[nH]c3c2)c1 |  | inconclusive: -32.2% [inhibitor] |
| CCOc1ccc(CCNC(=O)COC(=O)c2ccncc2)cc1OCC |  | inactive: -11.1% |
| COc1ccc(NC2=NCC(Cc3ccc(Br)cc3)S2)cc1 (configuration not stated) | inconclusive: 23.1 µM [inhibitor, single point] |  |
| Cc1cccc(N=C2NC(=O)/C(=C/c3cccn3C)S2)c1C | inconclusive: 29.1 µM [inhibitor, single point] |  |
| CCCCCC(=O)Nc1cccc(C2=NOC3(C2)C[C@H](C(N)=O)N(C(=O)COc2ccc(Cl)cc2)C3)c1 (some centres not stated) | inconclusive: 32.6 µM [inhibitor, single point] |  |
| c1ccc(NCCc2ccccn2)cc1 |  | inactive: 10% |
| CCC(C)NS(=O)(=O)c1ccc(OCC(=O)N2CCCC2)cc1 (configuration not stated) |  | inactive: 4% |
| Cc1ccc(-c2cc(C(F)(F)F)c(C#N)c(SCC(=O)Nc3ccccc3)n2)cc1 | inconclusive: 25.9 µM [inhibitor, single point] |  |

| Structure (SMILES) | Potency | activity change, negative = growth inhibition |
| --- | --- | --- |
| CCC(=O)N1CCc2cc(S(=O)(=O)CCC(=O)Nc3nc(C)cs3)ccc21 |  | inconclusive: -30.4% [inhibitor] |
| Cc1cc(C)cc(NC(=S)/C(=C(\[O-])c2ccc(Cl)cc2Cl)[n+]2ccccc2)c1 | inconclusive: 29.1 µM [inhibitor, single point] |  |
| CCCCN1C(=O)N(C)C2C1N(C)C(=O)N2CCCC (configuration not stated) |  | inactive: 1.65% |
| Cc1oc(/C=N/NS(=O)(=O)c2ccccc2)cc1Br |  | inconclusive: -30.7% [inhibitor] |
| COc1cc(OC)nc(Nc2nc(C(N)Cc3ccc(C(F)(F)F)cc3)cs2)n1 (configuration not stated) | inconclusive: 25.9 µM [inhibitor, single point] |  |
| CCC(C)[C@H]1COCCS(=O)(=O)N1Cc1ccc(C)cc1 (some centres not stated) | inactive and inconclusive: 29.1 µM [inhibitor, single point] |  |
| Cc1c(C)c2ccc(OCC(=O)Nc3cccnc3)cc2oc1=O | inconclusive: 23.1 µM [inhibitor, single point] |  |
| COc1ccc(OC)c(CCNC(=O)c2csc3c2CCCCC3)c1 | inconclusive: 16.4 µM [inhibitor, single point] |  |
| C/C(CC(=O)Nc1ccc(C)c(Cl)c1)=N\NC(=O)C1CCCCC1 |  | inactive: -14.9% |
| CCOc1cccc(C2c3c(-c4cc(C)ccc4O)n[nH]c3C(=O)N2Cc2ccco2)c1 (configuration not stated) | inconclusive: 29.1 µM [inhibitor, single point] |  |
| COc1ccc(C(=O)COC(=O)CNC(=O)c2ccccc2)cc1F |  | inactive: 2.68% |
| Cc1ccc(CNC(=O)c2cc3c(=O)n(Cc4cccnc4)ccc3nc2C)cc1 |  | inactive: -14.2% |
| CCOC(=O)C1CCN(C(=O)c2ccc3c(=O)n4nc(Nc5cc(C)ccc5C)sc4nc3c2)CC1 | active: 9.2 µM |  |
| CCOc1ncccc1C(=O)N1CCN(c2ccc(C(F)(F)F)cn2)CC1 | inconclusive: 20.6 µM [inhibitor, single point] |  |
| CCOC(=O)C(C)NC(=O)c1c(C)oc2ncn(CC(C)C)c(=O)c12 (configuration not stated) | inconclusive: 14.6 µM [inhibitor, partial curve, poor fit] |  |
| CCC(=O)C1=C(c2cccc(OC)c2)N(C(=O)CC)n2c(nnc2C2CCCCC2)S1 | active: 8.2 µM |  |
| O=C(CN1C(=O)/C(=C/c2ccccc2)SC1=S)N1CCN(CCc2ccccn2)CC1 | active: 8.2 µM |  |
| CN(C)c1ccc(/C=C2\C=Cc3ccccc32)cc1Cl | inconclusive: 35.5 µM [inhibitor, single point] |  |
| COc1ccccc1CNc1nc(NCc2cnc(C)cn2)c2sccc2n1 | inconclusive: 18.4 µM [inhibitor, single point] |  |
| CSc1nnc(C)c(=O)n1COC(=O)COc1ccc(Cl)cc1Cl | inconclusive: 29.1 µM [inhibitor, single point] |  |
| COc1ccc(NC(=O)CCCc2ccc(OC)c(C)c2)cc1 | inconclusive: 29.1 µM [inhibitor, single point] |  |
| O=C(Nc1ccc(S(=O)(=O)N2CCCCC2)cc1)c1ccc(F)cc1 | inconclusive: 29.1 µM [inhibitor, single point] |  |
| CC(C)(C)NC(=O)C(c1ccco1)N(C(=O)Cn1nnc(-c2ccc(F)cc2)n1)c1ccccc1F (configuration not stated) | active: 29.1 µM |  |
| Cc1cccc(Cc2c(C)nc3nc(SCC(=O)O)nn3c2C)c1 |  | inactive: -1.62% |

| Structure (SMILES) | Potency | activity change, negative = growth inhibition |
| --- | --- | --- |
| COc1cc(/C=N/NC(=O)c2cc(C)n(-c3ccc(F)cc3)c2C)cc(OC)c1O | inconclusive: 32.6 µM [inhibitor, single point] |  |
| Cc1cc(C(C)(C)CC(C)(C)C)ccc1OCCOCC[N+](C)(C)Cc1ccccc1 | active: 1.84 µM and active: 3.66 µM |  |
| O=C1NC2(CCCc3ccccc32)C(=O)N1CCOc1ccc(Br)cc1 (configuration not stated) | inconclusive: 29.1 µM [inhibitor, single point] |  |
| O=C1/C(=C/c2ccc([N+](=O)[O-])cc2)C=C(c2ccccc2)N1c1ccccc1 | inconclusive: 7.31 µM [inhibitor, full curve] |  |
| COc1ccc(CNC(=O)Cn2ncn3c(cc4ccccc43)c2=O)cc1 | inconclusive: 29.1 µM [inhibitor, single point] |  |
| CC(C)(C)c1ccc(C(=O)NNc2ccc(F)cc2F)cc1 |  | inactive: -10.9% |
| CCCCc1ccc(Nc2nc(CCC)cc(=O)[nH]2)cc1 | inconclusive: 29.1 µM [inhibitor, single point] |  |
| Cc1ccc(NC(=O)Cn2c(=O)oc3cc(S(=O)(=O)NCc4ccccc4)ccc32)cc1 | inconclusive: 0.116 µM [inhibitor, full curve, poor fit] |  |
| O=C(COc1ccc(Cl)cc1Cl)NNC(=S)NC(=O)c1ccco1 | inconclusive: 29.1 µM [inhibitor, single point] |  |
| CCn1cc(C(=O)N2CCN(c3ccc(C(C)=O)cc3)CC2)c2cc(OC)c(OC)cc2c1=O |  | inconclusive: -31.9% [inhibitor] |
| CCOC(=O)c1cc(-c2ccccc2)n(CC(=O)Nc2ccc(OC)c(OC)c2)c1C | inconclusive: 5.8 µM [inhibitor, partial curve] |  |
| O=C(COC(=O)c1cc(S(=O)(=O)N2CCOCC2)ccc1Cl)NCc1ccco1 |  | inactive: 13.2% |
| COc1ccc(NC(=O)C(c2ccccc2)n2c(=O)c(-c3ccco3)nc3ccccc32)cc1 (configuration not stated) | active: 10.3 µM |  |
| COc1ccc(C2CCCN2CC(O)COc2ccccc2C(C)C)cc1 (configuration not stated) | active: 23.1 µM |  |
| CCOC(=O)N1CCN(C(=O)/C(=C/c2ccc(N(C)C)cc2)NC(=O)c2ccccc2)CC1 |  | inactive: -1.02% |
| COc1cccc(NC(=O)C2CCN(c3nn4cc(-c5ccc(F)cc5)nc4s3)CC2)c1 | active: 13 µM |  |
| Cc1ccc(C)c2nc(N3CCCC3)c(C#N)cc12 |  | inactive: -0.585% |
| Cc1ccccc1C(=O)N1[C@@H](C(C)C)COc2cc(Br)ccc2S1(=O)=O | inconclusive: 20.6 µM [inhibitor, single point] |  |
| CN1C(=O)c2ccc(N3CCCC3)cc2C1=O | inconclusive: 14.6 µM [inhibitor, single point] |  |
| O=[N+]([O-])c1ccc(NCCN2CCOCC2)c([N+](=O)[O-])c1 |  | inconclusive: -31% [inhibitor] |
| Cc1ccccc1NC(=O)Cn1c(C)nc2ccc(N)cc2c1=O |  | inactive: -20.2% |
| CC(C)n1cc(CN2CCC(n3nccc3NC(=O)C3CCCC3)CC2)cn1 |  | inactive: 7.6% |
| Cc1ccc(C)c(-c2cc(C(=O)NCc3cccs3)c3ccccc3n2)c1 | inconclusive: 29.1 µM [inhibitor, single point] |  |
| Cc1cccc2c1-c1sc(C(=O)N(C)c3cccc(C(F)(F)F)c3)cc1CO2 | inconclusive: 29.1 µM [inhibitor, single point] |  |
